Assay results taken from a collection of fitness landscapes (doi:10.1016/j.celrep.2020.107928).
Whole data set: some 81,000 sequences, median “one-hybrid fitness for binding parS DNA” near -0.17, cut for the highest 2% near 0.51. The list shows a part of the results.

B1: Caulobacter ParB omega fusion; a variant is named by its letters at X, in order, B8GW30 (parent)
chain: MESVVVGEPGMSEGRRGLGRGLSALLGEVDAAPAQAPGEQLGGSREAPIEILQRNPDQPRRTFREEDLEDLSNSIREKGVLQPILVRPSPDTAGEYQIVAGERAWRAAQRAGLKTVPIMVRELDDLAVLEIGIIENVQRADLNVLEEALSYKVLMEKFERTQENIAQTIGKSXSHVANXMRLLXLPDEVQSYLVSGELTAXHARAIAAAADPVALAKQIIEGGLSVRETEALARKAPNLSAGKSKGGRPPRVKDTDTQALESDLSSVLGLDVSIDHRGSTGTLTITYATLEQLDDLCNRLTRGI

Variants of: B1
Assay: one-hybrid fitness for binding parS DNA (scaled: cognate 1, non-cognate 0); higher = stronger binding
Conditions: with parS DNA site
Outline: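 Pre- and post-selection plasmids were Illumina-sequenced, three replicate libraries were pooled, and any variant with under 10 reads was removed. The libraries were Caulobacter ParB with four specificity codons randomised, selected in E. coli USO through a HIS3 reporter whose site is 19 bp from the promoter. Cells grew 48 hours at 37°C on M9 without histidine, with 0.1 mM IPTG and 5 mM 3-AT. Fitness is the log change in variant-to-wild-type read ratio, rescaled against cognate and non-cognate.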

one-hybrid fitness for binding parS DNA, 0.241:
RLLW

one-hybrid fitness for binding parS DNA, 0.213:
DWSR

one-hybrid fitness for binding parS DNA, 0.223:
EIFV

one-hybrid fitness for binding parS DNA, 1.02:
RICS

one-hybrid fitness for binding parS DNA, 0.292:
FKPP

one-hybrid fitness for binding parS DNA, 0.782:
RMKY

one-hybrid fitness for binding parS DNA, 0.219:
EGKG

one-hybrid fitness for binding parS DNA, 0.977:
RMSS

one-hybrid fitness for binding parS DNA, ≤ 0.2:
PYAV
CPSC
PLYN
PCLK
CRTG
WSCL
YWLR
HSWA
MWTR
TKSI
CWQN
GPSL
CYIR
GNLD
APNR
ICTR
NQLV
IRDA
NVQI
HMES
TWFC
SEEY
CKTP
NHAD
CMGG
PPNG
GHAC
HAMS
GVRQ
SRHL
GTHS
TSHK
WHPC
RHHV
IQAC
ERRR
EGHR
ECHR
PRFY
HCLR
PHLI
PPYL
TTHI
RPHD
AKPK
LKWT
SNVT
ATSF
CMGF
NAKM
NHML
QQPG
FDTR
SNPG
RKHH
NHIR
YDHR
DREI
TPVL
AEDY
HLWA
TCKV
WDAD
REAF
VPPS
NLTS
RLYE
AVTL
TRFV
SDMP
FYDS
PAYM
TYCH
GEMG
QWSG
IGKR
LYTL
LRGK
SRHN
QRIP
SFQA
KGRF
AWHS
MSTY
PRRH
SSTI
GTES
TENR
RQTP
YMRM
RECK
GISW
RVTP
SYAL
NILV
ANRV
FGFG
TNVP
WLMM
AKGT
GPIL
QWRP
KEDV
QYCY
TRAR
PPSE
YITS
CLRA
NLCR
QEKK
HRIA
YSVL
TFCC
QTRM
DYLL
LRKE
TSYY
GVER
AAVV
LFPI
YERG
MSHV
EVLY
RMGH
YWCL
AWCL
QKAG
KGWD
PSIS
NNGF
DPTN
GKCT
GHYY
QWGS
SPIV
ATPT
VRGH
SYTD
ADLG
KFGW
DGTL
SQVR
ADVC
HLKS
LWAG
ASCS
STCM
VPAM
WISR
VTYT
AMPP
VDSA
HMPW
RRVF
TLGN
LVDY
QTCR
GVGG
QARI
LPDL
PWLF
VNVG
FQNG
DSTV
RWIV
DYIG
FDMG
ENHG
RIVK
AHRV
KIVD
NHHN
FTFT
GPKT
QCKP
RIRK
ITIC
PDVS
NVPL
ASLC
ISHR
QQML
FQKC
QPHQ
MQHR
THCF

one-hybrid fitness for binding parS DNA, 0.262:
VMQR
